Data taken from PMC11476435, “Functional Relationships between L1CAM, LC3, ATG12, and Aβ” (International Journal of Molecular Sciences, 2024).

Biological target: recombinant human LC3B (microtubule-associated protein 1 light-chain 3) (human, UniProt Q9GZQ8)
Test: ELISA; competition: recombinant LC3B, ATG12 or Aβ1-42 coated; L1Fc in solution alone or with a 20-fold molar excess of Aβ, L1-LIR peptide or mutated LIR peptide as competitor, 1 h at room temperature; detected with HRP-coupled anti-Fc antibody
Conditions: both partners purified

binding result: binds
B1: L1Fc, extracellular domain of mouse L1 fused to Fc from human IgG (Fc fusion)
chain: not shown
notes: The methods say that the Fc fusion presents dimers, not monomeric domains; also called extracellular domain of L1; soluble L1Fc chimera; source: recombinant, production and purification described in [111]
